Results reported in the supplement of paper PMC12217912.
The other results are listed elsewhere or left out. Sequences were assembled here from the parent chain. Values near 0.05 are background.

B1: TEV protease; numbered along this chain (parent)
chain: MGESLFKGPRDYNPISSSICHLTNESDGHTTSLYGIGFGPFIITNKHLFRRNNGTLVVQSLHGVFKVKDTTTLQQHLVDGRDMIIIRMPKDFPPFPQKLKFREPQREERICLVTTNFQTKSMSSMVSDTSCTFPSGDGIFWKHWIQTKDGQCGSPLVSTRDGFIVGIHSASNFTNTNNYFTSVPKNFMELLTNQEAQQWVSGWRLNADSVLWGGHKVFMVKPEEPFQPVKEATQL

Variants of: B1
Test: raw area under fraction-flipped curve 0-4 h after induction (AUC4h, not background-subtracted), DNA-recorder readout of cleavage of the substrate (dimensionless); higher = more cleavage of the substrate by the protease variant
Details: temperature: 34 °C; time window: 0-4 h after rhamnose induction
Procedure: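 In vivo DNA recorder in E. coli TOP10(DE3) ΔrhaA at 34 °C. Each TEVp single-site mutant (parent TEVp 0) is paired with a single-site variant of the 7-mer TEVs (canonical ENLYFQ|S). The substrate sits between flexible linkers in a Bxb1-sfGFP-TEVs-SsrA fusion, so cleavage stabilises Bxb1 and speeds flipping of a recombination array, read by NGS. The value is the raw area under the fraction-flipped curve over 0-4 h after rhamnose induction (AUC4h), with ≥20 reads per time point. It is not background-subtracted; inactive controls average about 0.047.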
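Further: Bxb1 expression induced with 0.2% (w/v) L-rhamnose at OD600 near 0.5, cultures sampled hourly, flipped fraction per protease–substrate barcode pair counted by paired-end Illumina sequencing.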

| Variant | area with substrate CNLYFQS | area with substrate HNLYFQS | area with substrate INLYFQS | area with substrate KNLYFQS | area with substrate LNLYFQS | area with substrate MNLYFQS | area with substrate NNLYFQS | area with substrate PNLYFQS | area with substrate SNLYFQS | area with substrate TNLYFQS | area with substrate WNLYFQS | area with substrate YNLYFQS | area with substrate GNLYFQS | area with substrate RNLYFQS | area with substrate FNLYFQS | area with substrate VNLYFQS | area with substrate DNLYFQS | area with substrate QNLYFQS |
| --- | --- | --- | --- | --- | --- | --- | --- | --- | --- | --- | --- | --- | --- | --- | --- | --- | --- | --- |
| P40I | 0.0828 | 0.065 | 0.0642 | 0.0572 | 0.063 | 0.0599 | 0.0568 | 0.054 | 0.0697 | 0.0577 | 0.068 | 0.0633 | – | – | – | – | – | – |
| P40D | 0.0603 | 0.0898 | – | – | – | 0.0846 | – | 0.0719 | – | 0.0449 | – | 0.0657 | 0.0675 | – | – | – | – | – |
| P40H | 0.0833 | 0.0679 | 0.059 | 0.0681 | 0.0596 | 0.0652 | 0.0682 | 0.068 | – | 0.0514 | 0.0627 | 0.0579 | – | 0.0712 | – | – | – | – |
| P40L | 0.0584 | 0.058 | – | 0.0613 | 0.0736 | 0.0662 | – | – | 0.0661 | 0.0672 | 0.0623 | 0.0688 | 0.0562 | – | 0.046 | 0.0644 | – | – |
| P40N | 0.0488 | – | – | 0.0677 | – | 0.0667 | – | 0.0676 | – | 0.0744 | – | – | 0.0614 | – | – | – | 0.075 | – |
| P40S | 0.0765 | 0.0725 | 0.0663 | 0.0652 | 0.0286 | – | 0.0681 | 0.0673 | 0.0383 | 0.0619 | 0.0668 | 0.0647 | 0.047 | 0.0545 | 0.0653 | 0.0707 | 0.0876 | – |
| G8P | 0.081 | 0.0639 | – | 0.07 | – | 0.0721 | 0.0597 | – | 0.0709 | – | – | 0.0761 | – | – | – | 0.0423 | 0.0821 | – |
| G8S | 0.0475 | 0.0475 | – | – | – | – | 0.0727 | 0.0675 | – | 0.059 | – | 0.0573 | – | – | – | 0.0574 | – | – |
| P104L | 0.0483 | 0.047 | 0.0526 | 0.0442 | 0.0633 | 0.054 | 0.0537 | 0.0524 | 0.0541 | 0.0512 | 0.0588 | 0.0528 | – | 0.0596 | 0.0506 | 0.0605 | 0.0514 | 0.0433 |
| P104M | 0.0494 | 0.0548 | – | 0.0686 | 0.0162 | – | – | 0.0602 | 0.0289 | 0.0555 | 0.0486 | – | – | – | – | – | 0.0446 | 0.0548 |
| N24Y | 0.0628 | 0.0701 | – | 0.0734 | 0.095 | – | 0.0759 | 0.0631 | 0.0601 | – | 0.0569 | – | – | – | – | 0.0598 | – | – |
| N24C | 0.0638 | 0.0606 | 0.0539 | – | 0.0713 | – | 0.0654 | 0.0616 | 0.0586 | – | 0.0601 | 0.06 | 0.0668 | 0.0642 | – | 0.0716 | 0.0763 | 0.0606 |
| N24D | 0.0523 | 0.0555 | 0.0542 | 0.0587 | 0.0569 | 0.0493 | 0.0616 | 0.0534 | 0.0445 | 0.0603 | 0.0529 | 0.0623 | 0.0622 | – | 0.054 | 0.0553 | 0.0684 | 0.0653 |
| P96V | 0.0653 | – | 0.0616 | – | 0.047 | – | 0.052 | 0.0614 | 0.0716 | 0.0571 | 0.0602 | 0.0585 | – | – | – | 0.0585 | 0.0666 | – |
| P96F | 0.0681 | – | – | 0.0593 | 0.0642 | 0.0578 | – | 0.0614 | 0.0623 | 0.0668 | 0.0582 | 0.0446 | 0.0698 | – | – | – | – | – |
